Assay results: the supplement of paper PMC4967469

compound: NC(=O)[C@@H](CCC(F)(F)F)N(Cc1ccc(-c2ncon2)cc1F)S(=O)(=O)c1ccc(Cl)cc1 [BMS-708163]; experiment: Viability of human cancer cell lines after 72 h of drug (GDSC screen); details: screen: GDSC drug entry 205; top dose inferred
Experimental: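 Human cancer cell lines in 384-well plates, medium with 10% serum, drug for 72 h over a 256-fold dose range (nine 2-fold or five 4-fold steps up to the top dose). Adherent lines were fixed and stained with the nucleic acid dye Syto60, suspension lines read with resazurin; signal relative to control wells, capped at 0 and 100%. One two-parameter sigmoid per drug and line, fitted in a mixed model over all curves with the slope shared within a line.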

Cell Line	AUC	IC50 [µM]
COLO-205 (large intestine, suspension, top dose 10.24 µM)	0.988	> 10.2
COLO-320-HSR (large intestine, suspension, top dose 10.24 µM)	0.989	> 10.2
COLO-668 (small cell lung carcinoma, adherent, top dose 10.24 µM)	0.982	> 10.2
COLO-678 (large intestine, semi-adherent, top dose 10.24 µM)	0.98	> 10.2
COLO-679 (melanoma, adherent, top dose 10.24 µM)	0.98	> 10.2
COLO-680N (oesophagus, adherent, top dose 10.24 µM)	0.986	> 10.2
COLO-684 (endometrium, suspension, top dose 10.24 µM)	0.98	> 10.2
COLO-783 (melanoma, adherent, top dose 10.24 µM)	0.99	> 10.2
COLO-792 (melanoma, adherent, top dose 10.24 µM)	0.985	> 10.2
COLO-800 (melanoma, adherent, top dose 10.24 µM)	0.988	> 10.2
COLO-824 (breast, adherent, top dose 10.24 µM)	0.968	> 10.2
COLO-829 (melanoma, adherent, top dose 10.24 µM)	0.973	> 10.2
COR-L23 (large cell lung carcinoma, adherent, top dose 10.24 µM)	0.977	> 10.2
COR-L88 (small cell lung carcinoma, adherent, top dose 10.24 µM)	0.986	> 10.2
COR-L95 (small cell lung carcinoma, adherent, top dose 10.24 µM)	0.979	> 10.2
COR-L105 (lung adenocarcinoma, adherent, top dose 10.24 µM)	0.969	> 10.2
COR-L279 (small cell lung carcinoma, suspension, top dose 10.24 µM)	0.981	> 10.2
COR-L303 (small cell lung carcinoma, suspension, top dose 10.24 µM)	0.987	> 10.2
COR-L311 (small cell lung carcinoma, suspension, top dose 10.24 µM)	0.978	> 10.2
COR-L321 (lung, suspension, top dose 10.24 µM)	0.989	> 10.2
CP50-MEL-B (melanoma, adherent, top dose 10.24 µM)	0.988	> 10.2
CP66-MEL (melanoma, adherent, top dose 10.24 µM)	0.984	> 10.2
CPC-N (small cell lung carcinoma, suspension, top dose 10.24 µM)	0.984	> 10.2
CS1 (bone, adherent, top dose 10.24 µM)	0.984	> 10.2
CTB-1 (B-cell lymphoma, suspension, top dose 10.24 µM)	0.966	> 10.2
CTV-1 (acute myeloid leukaemia, suspension, top dose 2.56 µM)	0.99	> 2.56
CW-2 (large intestine, adherent, top dose 2.56 µM)	0.989	> 2.56
Ca9-22 (head and neck, adherent, top dose 10.24 µM)	0.988	> 10.2
Ca-Ski (cervix, adherent, top dose 10.24 µM)	0.973	> 10.2

same assay, conditions: top dose 5 µM; screen: GDSC drug entry 1072; top dose inferred

Cell Line	AUC	IC50 [µM]
COR-L321 (lung, suspension)	0.986	> 5
CRO-AP2 (B-cell lymphoma, suspension)	0.987	> 5

By IC50 is meant the dose at which the fit gives 50% viability; a limit (>, <) means that the fit lies beyond the doses tested. AUC, from the same fit, is the share of area under the viability curve across the 256-fold dose range; values near 1 show little effect. Any top dose called inferred comes from the curve model; the source does not state it. An entry number marks a drug with two screens in the source, which often give different values.
